# Reference: US20250243260A1 (ALPINE IMMUNE SCIENCES, published 2025)
# Target: T1, human CD28 (endogenously expressed on primary human T cells) (human, UniProt P10747 19-220)
# T1 construct: whole, on cells
# Assay: flow cytometry, primary human T cells
Binder,MFI (anti-human Fc) at 0.8 nM [MFI],MFI (anti-human Fc) at 4 nM [MFI],MFI (anti-human Fc) at 20 nM [MFI],MFI (anti-human Fc) at 100 nM [MFI],fold change of MFI vs WT CD80 at 20 nM [fold]
"CD80_232-Fc, consensus variant CD80 IgV-Fc V11F/T28Y/M47L (Fc fusion, variant IgV - GSGGGGS - human IgG4 Fc (S228P)) VIHVTKEVKEFATLSCGHNVSVEELAQYRIYWQKEKKMVLTMMSGDLNIWPEYKNRTIFDITNNLSIVILALRPSDEGTYECVVLKYEKDAFKREHLAEVTLSVKADGSGGGGS[omitted - human IgG4 Fc with S228P (EU numbers)]",234,410,910,1640,5.1
"CD80_233-Fc, consensus variant CD80 IgV-Fc V11Y/T28Y/M47L/V68M (Fc fusion, variant IgV - GSGGGGS - human IgG4 Fc (S228P)) VIHVTKEVKEYATLSCGHNVSVEELAQYRIYWQKEKKMVLTMMSGDLNIWPEYKNRTIFDITNNLSIMILALRPSDEGTYECVVLKYEKDAFKREHLAEVTLSVKADGSGGGGS[omitted - human IgG4 Fc with S228P (EU numbers)]",540,1350,2290,2760,12.7
"CD80_234-Fc, consensus variant CD80 IgV-Fc V11Y/T28Y/M47L/V68L (Fc fusion, variant IgV - GSGGGGS - human IgG4 Fc (S228P)) VIHVTKEVKEYATLSCGHNVSVEELAQYRIYWQKEKKMVLTMMSGDLNIWPEYKNRTIFDITNNLSILILALRPSDEGTYECVVLKYEKDAFKREHLAEVTLSVKADGSGGGGS[omitted - human IgG4 Fc with S228P (EU numbers)]",261,453,812,1160,4.5
"CD80_235-Fc, consensus variant CD80 IgV-Fc V11Y/M47L/A71G (Fc fusion, variant IgV - GSGGGGS - human IgG4 Fc (S228P)) VIHVTKEVKEYATLSCGHNVSVEELAQTRIYWQKEKKMVLTMMSGDLNIWPEYKNRTIFDITNNLSIVILGLRPSDEGTYECVVLKYEKDAFKREHLAEVTLSVKADGSGGGGS[omitted - human IgG4 Fc with S228P (EU numbers)]",192,237,330,546,1.8
"CD80_236-Fc, consensus variant CD80 IgV-Fc V11Y/T28Y/M47L/A71G (Fc fusion, variant IgV - GSGGGGS - human IgG4 Fc (S228P)) VIHVTKEVKEYATLSCGHNVSVEELAQYRIYWQKEKKMVLTMMSGDLNIWPEYKNRTIFDITNNLSIVILGLRPSDEGTYECVVLKYEKDAFKREHLAEVTLSVKADGSGGGGS[omitted - human IgG4 Fc with S228P (EU numbers)]",247,376,680,1250,3.8
"CD80_238-Fc, consensus variant CD80 IgV-Fc V11Y/D46E/M47V/V68M (Fc fusion, variant IgV - GSGGGGS - human IgG4 Fc (S228P)) VIHVTKEVKEYATLSCGHNVSVEELAQTRIYWQKEKKMVLTMMSGEVNIWPEYKNRTIFDITNNLSIMILALRPSDEGTYECVVLKYEKDAFKREHLAEVTLSVKADGSGGGGS[omitted - human IgG4 Fc with S228P (EU numbers)]",208,290,547,1150,3
"CD80_239-Fc, consensus variant CD80 IgV-Fc V11Y/T28Y/D46E/M47V (Fc fusion, variant IgV - GSGGGGS - human IgG4 Fc (S228P)) VIHVTKEVKEYATLSCGHNVSVEELAQYRIYWQKEKKMVLTMMSGEVNIWPEYKNRTIFDITNNLSIVILALRPSDEGTYECVVLKYEKDAFKREHLAEVTLSVKADGSGGGGS[omitted - human IgG4 Fc with S228P (EU numbers)]",264,479,1180,3110,6.6
"CD80_240-Fc, consensus variant CD80 IgV-Fc V11Y/T28Y/D46E/M47V/V68M (Fc fusion, variant IgV - GSGGGGS - human IgG4 Fc (S228P)) VIHVTKEVKEYATLSCGHNVSVEELAQYRIYWQKEKKMVLTMMSGEVNIWPEYKNRTIFDITNNLSIMILALRPSDEGTYECVVLKYEKDAFKREHLAEVTLSVKADGSGGGGS[omitted - human IgG4 Fc with S228P (EU numbers)]",542,1230,2140,2760,11.9
"CD80_241-Fc, consensus variant CD80 IgV-Fc E10S/V11F/T28Y/M47L (Fc fusion, variant IgV - GSGGGGS - human IgG4 Fc (S228P)) VIHVTKEVKSFATLSCGHNVSVEELAQYRIYWQKEKKMVLTMMSGDLNIWPEYKNRTIFDITNNLSIVILALRPSDEGTYECVVLKYEKDAFKREHLAEVTLSVKADGSGGGGS[omitted - human IgG4 Fc with S228P (EU numbers)]",267,486,965,1560,5.4
"CD80_242-Fc, consensus variant CD80 IgV-Fc V11F/T28Y/M47L/T62S (Fc fusion, variant IgV - GSGGGGS - human IgG4 Fc (S228P)) VIHVTKEVKEFATLSCGHNVSVEELAQYRIYWQKEKKMVLTMMSGDLNIWPEYKNRTIFDISNNLSIVILALRPSDEGTYECVVLKYEKDAFKREHLAEVTLSVKADGSGGGGS[omitted - human IgG4 Fc with S228P (EU numbers)]",255,403,757,980,4.2
"CD80_243-Fc, consensus variant CD80 IgV-Fc V11Y/M47L/A71G/Y87R (Fc fusion, variant IgV - GSGGGGS - human IgG4 Fc (S228P)) VIHVTKEVKEYATLSCGHNVSVEELAQTRIYWQKEKKMVLTMMSGDLNIWPEYKNRTIFDITNNLSIVILGLRPSDEGTYECVVLKREKDAFKREHLAEVTLSVKADGSGGGGS[omitted - human IgG4 Fc with S228P (EU numbers)]",401,873,1990,3030,11.1
"CD80_244-Fc, consensus variant CD80 IgV-Fc V11Y/T28Y/M47L/Y87R (Fc fusion, variant IgV - GSGGGGS - human IgG4 Fc (S228P)) VIHVTKEVKEYATLSCGHNVSVEELAQYRIYWQKEKKMVLTMMSGDLNIWPEYKNRTIFDITNNLSIVILALRPSDEGTYECVVLKREKDAFKREHLAEVTLSVKADGSGGGGS[omitted - human IgG4 Fc with S228P (EU numbers)]",525,1420,2600,4190,14.4

# Target: T2, human PD-L1 (human, UniProt Q9NZQ7)
# T2 construct: whole, on cells; also called SCC152/PD-L1 cells
# T2 sequence (Q9NZQ7 19-290): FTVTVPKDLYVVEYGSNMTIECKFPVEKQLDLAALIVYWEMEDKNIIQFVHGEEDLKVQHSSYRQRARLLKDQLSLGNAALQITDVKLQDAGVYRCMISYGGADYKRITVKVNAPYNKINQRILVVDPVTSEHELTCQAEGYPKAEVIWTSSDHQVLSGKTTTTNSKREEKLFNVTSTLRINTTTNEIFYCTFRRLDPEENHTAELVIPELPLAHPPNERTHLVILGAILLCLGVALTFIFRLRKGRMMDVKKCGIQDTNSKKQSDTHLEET
# Assay: flow cytometry, SCC152/PD-L1 cells
# Procedure: Binding affinity to CD28 was determined using primary human T cells which endogenously express CD28. Binding to PD-L1 was determined using SCC152 cells transduced with human PD-L1. Binding to CTLA-4 was measured using Chinese hamster ovary (CHO) cells stably transduced to express human CTLA-4.
# For staining and analysis by flow cytometry, 75,000 human T cells, SCC152/PD-L1 cells, or CHO/CTLA-4 cells were plated in 96-well round-bottom plates. Cells were spun down and resuspended in staining buffer (PBS (phosphate buffered saline), 1% BSA (bovine serum albumin), 1 mM EDTA, and 0.1% sodium azide) for 20 minutes to block non-specific binding. Afterwards, cells were centrifuged, stain buffer aspirated, and then resuspended in 50 μL of a 1:5 serial dilution of each CD80-Fc candidate variant starting at 100 nM ending at 0.8 nM. Primary staining was performed on ice for 60 minutes, before washing cells in […] staining buffer three times. PE-conjugated anti-human Fc (Jackson ImmunoResearch, USA) was diluted 1:250 in 50 μL staining buffer and added to cells and incubated another 30 minutes at 4° C. Cells were washed two times in 150 μL stain buffer and then fixed in 2% formaldehyde/PBS for 5 minutes at room temperature. Samples were analyzed CytoFLEX LX flow cytometer (Beckman Coulter, USA). Median Fluorescence Intensity (MFI) was calculated for each cell type using the CytExpert software from Beckman Coulter.
Binder,Anti-Human Fc (MFI) at 0.8 nM [MFI],Anti-Human Fc (MFI) at 4 nM [MFI],Anti-Human Fc (MFI) at 20 nM [MFI],Anti-Human Fc (MFI) at 100 nM [MFI],fold change vs WT CD80 @20 nM [fold]
"CD80_185-Fc (Fc fusion, also called V11Y, T28Y, M47L) VIHVTKEVKEYATLSCGHNVSVEELAQYRIYWQKEKKMVLTMMSGDLNIWPEYKNRTIFDITNNLSIVILALRPSDEGTYECVVLKYEKDAFKREHLAEVTLSVKADGSGGGGS[omitted - human IgG4 Fc with S228P (EU numbers)]",1140,2160,4630,6260,6.8
"CD80_165-Fc (Fc fusion, also called V11Y, M47V, F59S, L85E) VIHVTKEVKEYATLSCGHNVSVEELAQTRIYWQKEKKMVLTMMSGDVNIWPEYKNRTISDITNNLSIVILALRPSDEGTYECVVEKYEKDAFKREHLAEVTLSVKADGSGGGGS[omitted - human IgG4 Fc with S228P (EU numbers)]",1010,1960,3490,3630,5.1
"CD80_166-Fc (Fc fusion, also called V11Y, M47V, L85E) VIHVTKEVKEYATLSCGHNVSVEELAQTRIYWQKEKKMVLTMMSGDVNIWPEYKNRTIFDITNNLSIVILALRPSDEGTYECVVEKYEKDAFKREHLAEVTLSVKADGSGGGGS[omitted - human IgG4 Fc with S228P (EU numbers)]",635,629,627,633,0.9
"CD80_168-Fc (Fc fusion, also called K9N, E10G, N63S, L85E) VIHVTKEVNGVATLSCGHNVSVEELAQTRIYWQKEKKMVLTMMSGDMNIWPEYKNRTIFDITSNLSIVILALRPSDEGTYECVVEKYEKDAFKREHLAEVTLSVKADGSGGGGS[omitted - human IgG4 Fc with S228P (EU numbers)]",667,711,754,829,1.1
"CD80_169-Fc (Fc fusion, also called E10G, E35G, D46E, M47V, V68M) VIHVTKEVKGVATLSCGHNVSVEELAQTRIYWQKGKKMVLTMMSGEVNIWPEYKNRTIFDITNNLSIMILALRPSDEGTYECVVLKYEKDAFKREHLAEVTLSVKADGSGGGGS[omitted - human IgG4 Fc with S228P (EU numbers)]",960,1180,1400,1780,2.1
